Experimental data: the supplement of paper PMC3334620
Whole data set: some 33,000 sequences, median “E-score (-0.5 to 0.5)” near -0.017, cut for the highest 2% near 0.3. Some of the results follow.

Target: T1, Sut1 (UniProt P53032)
T1 sequence: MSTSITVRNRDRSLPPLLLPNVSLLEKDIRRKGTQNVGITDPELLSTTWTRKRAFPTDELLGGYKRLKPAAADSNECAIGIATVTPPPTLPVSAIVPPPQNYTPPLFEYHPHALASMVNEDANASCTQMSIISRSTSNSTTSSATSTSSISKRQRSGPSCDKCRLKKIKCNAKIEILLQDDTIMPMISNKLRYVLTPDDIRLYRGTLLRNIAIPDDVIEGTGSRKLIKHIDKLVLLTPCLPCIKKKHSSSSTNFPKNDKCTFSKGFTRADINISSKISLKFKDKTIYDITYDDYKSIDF
Assay: PBM E-score (8-mer binding enrichment) (E-score (-0.5 to 0.5)); higher = stronger / more preferred TF binding; most listed sequences are background and not binding sites
Settings: protein concentration: 200 nM; construct: GST-full length
Description: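 Universal 'all 10-mer' protein binding microarrays (Agilent AMADID 015681) probed with GST-tagged S. cerevisiae TFs (full-length or DBD) made by in vitro transcription/translation (PURExpress), about 100-200 nM. Bound TF was detected with fluorescent anti-GST. Each ungapped 8-mer (which stands for itself and its reverse complement) is scored by the PBM enrichment score (E-score), a modified Wilcoxon-Mann-Whitney statistic from -0.5 to +0.5, computed with the Universal PBM Analysis Suite. Scale: above 0.35 generally sequence-specific binding.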

Sequence | PBM E-score
AAAGCTGG | -0.115
CACAGTCG | -0.00255
ATGCAACA | -0.104
TATATCCA | 0.0641
AACCAGGG | -0.129
GTAGGAAA | -0.0355
ATATATAC | 0.31
AGCTCCCG | -0.173
CATTCAAA | 0.217
GCTCCGTA | 0.291
CGCTGCAC | -0.281
CTGTTAAA | 0.162
GCCGTAAC | -0.118
ACCAGGGG | -0.34
AAATCGAG | 0.0584
GGTTTGTA | 0.0988
CGGCCTTC | 0.161
CCATGTAC | -0.00338
ACTAATAC | 0.294
GACCCACA | 0.00152
ACAATTCG | 0.124
AGATGTTC | -0.0198
CGGCACAA | -0.115
AAATCCGC | -0.0542
CCGCCCGA | -0.0659

Sequence | PBM E-score
ATACGAAA | 0.139
CAAGCCAC | -0.278
AGACCCTA | -0.0166
ATTCAGCG | 0.0617
AAATACGC | 0.183
AAGTCTTC | -0.0836
CATTTTTC | 0.117
AACAATAC | 0.0474
CAGGTATC | -0.105
ATTACAAA | 0.272
TCACCACA | -0.0523
CAGACAGC | -0.104
ACAAGAGC | -0.133
GTGCGTAA | -0.0657
AATTCCTG | -0.138
ATGTATTG | 0.29
AATGCGCA | 0.223
AGTTACGG | 0.0959
CTTCGCAC | -0.173
TGGAACAA | 0.0534
GTCTCATA | 0.0188
CGTAGGGC | -0.335
AATTGACA | 0.128
ACGCCGCA | -0.25
TCCCTCCA | -0.248

Sequence | PBM E-score
CATAGAAG | 0.104
CAGCGGTA | -0.0702
AGCCTAGA | -0.224
CGAGAGCC | -0.161
ACCTAAGT | 0.0986
ATTGTCAA | -0.0624
AACTAACC | 0.336
ACGGGACT | -0.0468
GATAAATC | 0.26
CAGTTACC | -0.132
AAAAGCGC | 0.131
GAAATGGC | 0.0237
TCATTCCA | 0.0304
GTGCCGCA | -0.0409
CAATGGCG | -0.0729
TCGAGGCA | -0.0536
AGCTCGAA | 0.171
CATTCCTA | -0.00994
ACTCCTTA | -0.0269
GCCCACAA | -0.174
ACGGCACC | -0.125
TCGAATCA | 0.0056
AAGTATAA | 0.209
CAGCCGGA | 0.276
AATACTGC | 0.0484

Sequence | PBM E-score
GTCGGGGA | 0.0429
GACTCTGA | -0.0272
ACTTACGC | 0.134
CGCCCCCG | -0.0475
TGGATGAA | 0.0547
AAGGCCCC | -0.167
GCAGGCGC | -0.169
GCGCACGC | -0.13
ATTCGAAC | 0.0762
ACAATCAC | 0.135
AGGGAGCC | -0.204
CAATGGTA | 0.135
CTGGCTAA | -0.101
ACGAACAA | 0.234
AATTAGGG | -0.121
ACTGTGTC | -0.106
CGGGGACG | -0.148
GAAGAATA | 0.0886
CACGCACA | -0.0675
GCCACACA | -0.0105
AGTGTAAC | -0.0771
CGGAGTAG | 0.49
CCGAGGAG | -0.0382
AGATAGCT | 0.0787
ACGAGGCG | 0.0233

Sequence | PBM E-score
GACAATTA | 0.113
AAGAATAC | 0.105
ATACTCGG | 0.0187
TGCTCACA | -0.277
AGTGTTTC | 0.00337
AGTTGAAC | -0.061
ATGCTGTG | -0.0226
ATAACGTA | 0.195
CACGAACA | 0.0574
CATGTATA | 0.0763
CGCCGGGA | -0.203
GCGCTCCC | -0.261
ATGTTTGA | 0.119
TCCTGGCA | -0.111
ATGAGTGG | 0.00025
CCAAGGCC | -0.303
GCTTAGAC | -0.227
GCGAATCA | 0.103
CCCCTGGA | -0.322
ACGCGCAT | -0.137
CAATAAAG | 0.112
TAAGAGCA | 0.0994
AGCGAACA | -0.00025
ACGATCGC | -0.0861
TCCGTGAA | 0.271

Sequence | PBM E-score
CTACTGGA | -0.165
ACCCCCTA | -0.376
CACTTGAG | -0.177
GTAAAGGA | 0.0266
AGGGACAA | -0.163
AAATGATT | 0.311
AGATATCC | 0.0562
ATGTCAGA | -0.0898
TCCTTGCA | -0.188
AGCCCCCA | -0.424
GTTTCGAA | 0.0889
AGGTCTCG | -0.00502
GCAGAACA | 0.0378
GTACGAAC | 0.156
ACCAACCG | 0.0755
GCGAGGCC | -0.107
GACCAGAA | -0.0635
GGGCCTTA | -0.289
ACGAATAA | 0.202
GCCGGGCC | -0.0944
AGGTCAGG | -0.175
ATCTGGAC | -0.0329
ATTTTAGC | 0.016
GGATTTCA | 0.117
CGCGTGTC | 0.00193

Sequence | PBM E-score
TATGGGCA | -0.206
GCGGCCCC | -0.274
TGTTTAAA | 0.111
ACCTGGTA | -0.25
GAAAAGCC | -0.0607
ATCATACA | 0.314
ATCATTAG | 0.0427
GAACAAGC | -0.126
ATTAGGTG | 0.0551
ACAGCTAA | -0.206
GCGGAAGA | -0.02
CGCTCATC | -0.0962
CTTGGTCA | 0.0288
GCACGCTA | -0.187
AGGGCTAC | -0.234
ATGGGTCC | -0.00462
AGCAGCTC | -0.143
CAGATCGC | -0.143
GGGTCACC | -0.274
ATATCCCC | 0.0201
AGCGGGAG | -0.135
CGGTCACG | -0.101
